According to the supplement of paper PMC11417369:
The list shows a part of the results.

tested on: PfSIP2 AP2 domain 1 (GST-tagged); assay: gcPBM binding intensity (ln(normalized median fluorescence intensity)); higher = stronger DNA binding
How it was run: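 Binding intensity values are the highest Masliner-normalised natural-log median intensity among replicate spots of either probe orientation. The binding step lasted 1 h in 1× PBS with 1% milk, 0.2 mg/ml BSA, 0.5% salmon testes DNA and 0.03% Triton X-100, using GST-tagged P. falciparum DNA-binding domains expressed in E. coli on an Agilent 4 × 180k array of primer-extended double-stranded 36-bp intergenic genomic probes plus negative controls. Alexa488 anti-GST antibody and a 488 nm scan detected bound protein.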

Sequence | gcPBM binding intensity (ln)
TCTTCACCACGTGGAAGTACATAAAAAGATACACAA [XGTACX_site4747] | 7.23
AATAATATTAACACACGTACAAAAGCAAACAACCAA [XGTACX_site7410] | 7.38
ATACATTCTAATACGTGTACATATATATATATATAT [XGTACX_site1881] | 9.29
ATAAAACAAAAACACACACACATACACAAAAAAAAA [CACACA_site3848] | 7.05
TTTATATTATTATATCTTATTAATTATTTATCATTT [TGCATGCA_negctrl_site73] | 6.86
ATATTAAAATACAGTGCATGTTAAAAATATATTATA [TGCATGCA_site977] | 9.88
TTATAACATCTTAAATGTACAAATATGTGCTTATTT [XGTACX_site7285] | 6.85
ATGTATTTATATACTTGTACGTAAGATGTATTATAT [XGTACX_site908] | 7.26
TAAAAAAAAAACATCTGTACCAATTTTTATGTATAA [XGTACX_site5196] | 6.75
AATAAAAGTTCACCTGTACACACATATATATATGTA [CACACA_site8500] | 7.17
ATTGGAAAATATGTTATATATATATATATATATATG [CACACA_negctrl_site116] | 7.82
TTAATTCGTACATACACACGCACATATATATATATA [CACACA_site1469] | 9.36
AATAATAATAGAAACACACACACATCTTTAATAATA [CACACA_site4805] | 6.87
ATATTTTTTTTCTACACACATACAAATATATATTAT [CACACA_site2359] | 7.44
ACATGCAACCATTCGGGTACAGAAATAAATATATAC [XGTACX_site4174] | 7.18
CTTTTTCGCATGAAAAGTACATGAAATATATTACAT [XGTACX_site8971] | 6.86
AATAACTTTTTAAACACACACACATATAAATAAATA [CACACA_site6196] | 7.23
GGTTATAACGCACATGCACACGTAAATAAATATTAT [CACACA_site9277] | 7.74
TAAATTTTAATAAATACACACAAATTTTAATTCTAT [CACACA_site6039] | 6.66
TATTGTATATAATAAACACACAATATTAAAAATATA [CACACA_site1057] | 6.8
TATTTAAAAAACACATGTACGAGTATTATATATAAA [XGTACX_site6654] | 7.02
TAATATACTTAATACACACACGAATATTTATAAATA [CACACA_site6675] | 7.03
GATTCATCTAAACACCGTACATATTATATATATATA [XGTACX_site6030] | 9.22

Sequence | gcPBM binding intensity (ln)
CCCCTCGAAATAATTTGTACGAATATATTGTCTGTA [XGTACX_site8308] | 7.62
AAACTCAACTTATATACACACAATCTTTTTTTTTTA [CACACA_site29] | 6.8
AGTATATTAAAAAATACACACGTATTATATCTACAT [CACACA_site8844] | 6.95
GTTCATAAATTAAACACACACACACCGCTGGATACC [CACACA_site5779] | 7.3
GAAACATACATTTTTTGTCCGTAAGTATTATAATAA [XGTACX_site3273] | 6.94
ATACATCAAGGACACACACACACACCCACACCCACA [CACACA_site8013] | 7.16
ATTTTGCCTGACCCATGTACATATTATTTTTTGCAT [XGTACX_site2258] | 7.51
CTATGAATAGGAAAAAGTACTAAACCTTTATATATA [XGTACX_site5022] | 7.04
CACATAAAAATTGTGTTGCACTTTTATTCTTATATC | 8.31
AGTAGAATATCCCCTACACACCCAAATAATTTACAA [CACACA_site8339] | 6.96
TTTATATATTTTAGGTGTACATAAATTTTTATATAT [XGTACX_site5597] | 7.2
AACTTACTTGGACATACACACATATATATATATATA [CACACA_site2978] | 9.54
TAACTTAATATTAATGCACACAATTTATATATATAT [CACACA_site3903] | 8.99
TCAAATATTCATAAATGTACATTTATTTTTCTCCTT [XGTACX_site5827] | 6.74
CATAGACACGAACATACACACGGACATACATACGGA [CACACA_site8101] | 6.98
GTAACAAATTAATAGTGTACATATTTTAAAAAAATA [XGTACX_site7150] | 7.18
AATGCAAAGGTGAAAGAACACACAAAAAAAAAAAAA [CACACA_site9333] | 6.87
GTGTTAAATTTTTGAACATGCAAGTTTTATTATTGA [TGCATGCA_site478] | 6.99
ATATTATAAATATAATGTACGTTTTAATTTCATGTT [XGTACX_site3557] | 6.86
ATATATAATTATTGAAGTACTTGTTCATAAAATGGT [XGTACX_site5656] | 7.16
TATATGAGCATAAAGACACACAAATAAAACCAAACA [CACACA_site3856] | 7.08
AAAATAAAATGAAAACGTACATGATAAATTTTAATT [XGTACX_site4199] | 6.83
AGAACAATTCTGTGGTGTACCAAAAAAAATTTAATT [XGTACX_site8082] | 6.93

Sequence | gcPBM binding intensity (ln)
TAAATGAATTTTACTATACACACGTATACATTTGTA [CACACA_site1210] | 6.72
AAAATAAATAAATATACACACCATATTTATATTTTT [CACACA_site7361] | 6.9
ATATTTAAATTTTGCACACGCATATGAAATTAGGAC [CACACA_site1035] | 7.54
TACTACACACATTCATGTACTTGATAAATTAATGAT [XGTACX_site6444] | 7.03
ATAACTAATATGAAATGTACCCATCAAAGTGTGCAT [XGTACX_site4463] | 7.32
TAATTTGTTATTTATTGTACAAACATTATATGTTAA [XGTACX_site6637] | 7.1
AAAATTAAAATACGTACACACCTTATCTTTTTGGCT [CACACA_site4311] | 7.08
CATACATACATACATACACACATATATAAATATATG [CACACA_site7028] | 7.97
TAAGTGATCGCATAATGTACATATTATTTATTATTT [XGTACX_site3061] | 6.85
TACATTTAAAAAAAAACACACATATTTATATTTATA [CACACA_site7236] | 6.79
GGAAGGATATAACATACACACACACCCATATATATA [CACACA_site9376] | 7.7
TTATGTATTTATTTATGTACTAATTGTATGCATATT [XGTACX_site6436] | 6.93
CATATACATAGACACACACACACATAAATAAATATA [CACACA_site6749] | 7.27
TTTCCTGGTCAAGGGGTTACGGTTACGTCCTCTTGC [CACACA_negctrl_site856] | 6.5
ATACTTTATAAATACTAAAGTGTATTTTGTAATATA [CACACA_negctrl_site1710] | 6.76
ATTTGTATATATAATTGTACGCATATTCTATACGAT [XGTACX_site7367] | 6.94
AAAAATATGAAAGTAACTAAGTTGTTATTGATAACA [CACACA_negctrl_site1608] | 6.6
ACGTTAGGCTTATTTGCACACTTGTATTATAATTTT [CACACA_site1317] | 7.08
ATATTATCACAAGGTGGTACACAAAAAAAAAAAAAA [XGTACX_site8224] | 7.64
ATAAATATGGAGCACACACACATAAACATACAGATA [CACACA_site4395] | 7.19
TACTTTCACATTAAATGTACGTATAGTTTCATTCTT [XGTACX_site8528] | 7.23
ATATTAAAAATATATACACACATATATATAAATATA [CACACA_site2257] | 6.9
TATATTTAAGTACATAAATAAGCCCATTTACATACA [CACACA_negctrl_site1224] | 7.17

Sequence | gcPBM binding intensity (ln)
TTTGGAGAATTCATAGTGCATTTATTTATTGTTAAT | 7.97
TTCTAAAATTATATAGTGCAATTATTTTATTTTTCT | 8.27
AAAAAAATAAAACACATACATATATGTATATATATA [GTGCAC_negctrl_site390] | 8.29
TAAATATATATATAAGTGCATTATATATATATATAA | 8.97
ATTAATAATTATTATGGTACACATGTAACTACTCTC [XGTACX_site198] | 7.06
ATCTCTTACATATTCACACACATATAAATAACTACA [CACACA_site6816] | 7.62
ATATGATAGTTTATATGTACATAAATAAATACATAC [XGTACX_site2917] | 7.33
AAAGAAAAAAAATAATGTACATATGTATTTGAGAAA [XGTACX_site3571] | 7.18
TGTAGAAGAACCCATGCATGCAGTATGAAAAAAAAA [TGCATGCA_site907] | 6.9
AAAAAAAGAAAAAAACGTACATGAAAATTTTTTGTT [XGTACX_site5135] | 6.77
CTATATAAAAAAATTGCACACATAAATATATACATA [CACACA_site8325] | 7.07
ATAAATCCCAAAACCTTGCAAGACAACGTTTGATCA [CACACA_negctrl_site1327] | 6.67
GTTCTTTCAAATTATACACACCAAAAAAAAAAAAAA [CACACA_site5660] | 7.36
TGATCAAGTAAGAAAAGTACAAAAAAAGTAAAAAAT [XGTACX_site6529] | 7.19
ATAAGTTTTTATTTTCTGCACTGTCGAATAATAGTT | 7.87
GATATGTTTTATTATGTTGATGATAACAGGTAGTTT [CACACA_negctrl_site356] | 6.95
ATGGATTATTTTTAAACATGCAGTAGTGATGAAAAA [TGCATGCA_site346] | 6.96
AAAAAAAACATACATACACACACATAAATATATATA [CACACA_site8864] | 7.42
TATATTATAATATTCACACACTAACGTAAATCATTG [CACACA_site7318] | 6.99
AAAAAATATATATATATATATATGTAATATTTTTTT [XGTACX_negctrl_site439] | 7.45
